Data on 32 sequences can be found in PMC12820563, “FoxP3 forms a head-to-head dimer in vivo and stabilizes its multimerization on adjacent microsatellites”.

This is one part of the list.

This assay deals with T1, MBP-FoxP1dN (Mus musculus, UniProt P58462 326-579).
T1 sequence: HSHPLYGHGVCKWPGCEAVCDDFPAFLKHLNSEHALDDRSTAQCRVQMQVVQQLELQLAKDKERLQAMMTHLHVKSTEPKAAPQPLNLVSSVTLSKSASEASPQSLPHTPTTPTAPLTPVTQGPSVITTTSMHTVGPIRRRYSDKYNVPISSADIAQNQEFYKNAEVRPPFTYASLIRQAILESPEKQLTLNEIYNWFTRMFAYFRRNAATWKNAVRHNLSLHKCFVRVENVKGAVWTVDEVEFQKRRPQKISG
The assay can be described thus: PD-seq (MBP pull-down with sequencing); 20 mM Tris-HCl pH 7.5, 100 mM NaCl, 1.5 mM MgCl2, 0.4 uM protein, 0.1 uM dsDNA library, 30 min, room temperature, amylose pull-down; high values mean tight binding. The settings on record: protein: recombinant; tags: His6-MBP; chain copies: 2; dsDNA, one strand shown. In short, it runs like this:
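The N-terminus-lacking fragment of mouse FoxP3 or FoxP1 carried a His6-MBP tag and was expressed in E. coli. At 0.4 µM it was incubated with 0.1 µM Klenow-filled degenerate double-stranded DNA library for 30 min at room temperature in Tris pH 7.5 buffer with NaCl and MgCl2, and complexes were caught on amylose resin, washed three times, released with proteinase K, PCR-barcoded and Illumina-sequenced. Binding is reads-per-million enrichment of pull-down over input with replicates pooled.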
Consider “GATGATTGTTCTCCCAGCTGATGAATTAAACTCATCGAGTAAACAAATTTTCCTAATCTTTCTGTTCAAGCGCCATCTAC”, for which the binding signal was 0.982 RPM ratio (pull-down/input). In the case of “GATGATTGTTCTCCCAGCTGATGAATTAGACGCATCGAGTAAACAAATTTTCCTAATCTTTCTGTTCAAGCGCCATCTAC” it was 1.19 RPM ratio (pull-down/input); in that of “GATGATTGTTCTCCCAGCTGATGAATTCGCGGGATCGAGTAAACAAATTTTCCTAATCTTTCTGTTCAAGCGCCATCTAC”, 0.826 RPM ratio (pull-down/input). Regarding “GATGATTGTTCTCCCAGCTGATGAATTGTGCGTTTCGAGTAAACAAATTTTCCTAATCTTTCTGTTCAAGCGCCATCTAC”, the binding signal is 1.11 RPM ratio (pull-down/input). Consider “GATGATTGTTCTCCCAGCTGATGAATTCCGATAATCGAGTAAACAAATTTTCCTAATCTTTCTGTTCAAGCGCCATCTAC”, for which the binding signal was 1.08 RPM ratio (pull-down/input). With “GATGATTGTTCTCCCAGCTGATGAATTGGAGATGTCGAGTAAACAAATTTTCCTAATCTTTCTGTTCAAGCGCCATCTAC”, the binding signal was 0.866 RPM ratio (pull-down/input). Then “GATGATTGTTCTCCCAGCTGATGAATTCACTTGTTCGAGTAAACAAATTTTCCTAATCTTTCTGTTCAAGCGCCATCTAC”, with 0.888 RPM ratio (pull-down/input). In the case of “GATGATTGTTCTCCCAGCTGATGAATTATCCCCATCGAGTAAACAAATTTTCCTAATCTTTCTGTTCAAGCGCCATCTAC” it was 1.04 RPM ratio (pull-down/input); in that of “GATGATTGTTCTCCCAGCTGATGAATTCTAGTGTTCGAGTAAACAAATTTTCCTAATCTTTCTGTTCAAGCGCCATCTAC”, 1.06 RPM ratio (pull-down/input); in that of “GATGATTGTTCTCCCAGCTGATGAATTAAGGTTTTCGAGTAAACAAATTTTCCTAATCTTTCTGTTCAAGCGCCATCTAC”, 1.01 RPM ratio (pull-down/input). In the case of “GATGATTGTTCTCCCAGCTGATGAATTCTTTCGATCGAGTAAACAAATTTTCCTAATCTTTCTGTTCAAGCGCCATCTAC” it was 0.874 RPM ratio (pull-down/input); in that of “GATGATTGTTCTCCCAGCTGATGAATTATTCTGTTCGAGTAAACAAATTTTCCTAATCTTTCTGTTCAAGCGCCATCTAC”, 1.18 RPM ratio (pull-down/input). Take “GATGATTGTTCTCCCAGCTGATGAATTGCTGGGATCGAGTAAACAAATTTTCCTAATCTTTCTGTTCAAGCGCCATCTAC”: the binding signal is 0.939 RPM ratio (pull-down/input).

On to “GATGATTGTTCTCCCAGCTGATGAATTGACGACGTCGAGTAAACAAATTTTCCTAATCTTTCTGTTCAAGCGCCATCTAC”, for which the binding signal is 1.07 RPM ratio (pull-down/input). Then “GATGATTGTTCTCCCAGCTGATGAATTTCTTAGGTCGAGTAAACAAATTTTCCTAATCTTTCTGTTCAAGCGCCATCTAC”, with 0.814 RPM ratio (pull-down/input); and “GATGATTGTTCTCCCAGCTGATGAATTAAGTTTCTCGAGTAAACAAATTTTCCTAATCTTTCTGTTCAAGCGCCATCTAC”, with 0.867 RPM ratio (pull-down/input).

As to “GATGATTGTTCTCCCAGCTGATGAATTGAACGCCTCGAGTAAACAAATTTTCCTAATCTTTCTGTTCAAGCGCCATCTAC”, the binding signal is 0.893 RPM ratio (pull-down/input). Then “GATGATTGTTCTCCCAGCTGATGAATTTTGCCCTTCGAGTAAACAAATTTTCCTAATCTTTCTGTTCAAGCGCCATCTAC”, with 0.894 RPM ratio (pull-down/input). Then “GATGATTGTTCTCCCAGCTGATGAATTTCTTTAATCGAGTAAACAAATTTTCCTAATCTTTCTGTTCAAGCGCCATCTAC”, with 1.06 RPM ratio (pull-down/input). In the case of “GATGATTGTTCTCCCAGCTGATGAATTCCTCTGTTCGAGTAAACAAATTTTCCTAATCTTTCTGTTCAAGCGCCATCTAC” it was 0.789 RPM ratio (pull-down/input). For “GATGATTGTTCTCCCAGCTGATGAATTAATGTAATCGAGTAAACAAATTTTCCTAATCTTTCTGTTCAAGCGCCATCTAC”, the binding signal is 1.68 RPM ratio (pull-down/input).

Consider “GATGATTGTTCTCCCAGCTGATGAATTCACACGTTCGAGTAAACAAATTTTCCTAATCTTTCTGTTCAAGCGCCATCTAC”, for which the binding signal is 0.882 RPM ratio (pull-down/input). Then “GATGATTGTTCTCCCAGCTGATGAATTCTTTGCCTCGAGTAAACAAATTTTCCTAATCTTTCTGTTCAAGCGCCATCTAC”, with 0.869 RPM ratio (pull-down/input); and “GATGATTGTTCTCCCAGCTGATGAATTTTCTGGATCGAGTAAACAAATTTTCCTAATCTTTCTGTTCAAGCGCCATCTAC”, with 0.821 RPM ratio (pull-down/input).

In the case of “GATGATTGTTCTCCCAGCTGATGAATTCGGGCCCTCGAGTAAACAAATTTTCCTAATCTTTCTGTTCAAGCGCCATCTAC”, the binding signal was 0.699 RPM ratio (pull-down/input). Regarding “GATGATTGTTCTCCCAGCTGATGAATTTCTTTTCTCGAGTAAACAAATTTTCCTAATCTTTCTGTTCAAGCGCCATCTAC”, the binding signal was 0.848 RPM ratio (pull-down/input).

“GATGATTGTTCTCCCAGCTGATGAATTGCGGGTCTCGAGTAAACAAATTTTCCTAATCTTTCTGTTCAAGCGCCATCTAC”: the binding signal was 0.953 RPM ratio (pull-down/input). For the sequence “GATGATTGTTCTCCCAGCTGATGAATTGGTTGGTTCGAGTAAACAAATTTTCCTAATCTTTCTGTTCAAGCGCCATCTAC”, the binding signal was 1 RPM ratio (pull-down/input).

For the sequence “GATGATTGTTCTCCCAGCTGATGAATTAGCGGCATCGAGTAAACAAATTTTCCTAATCTTTCTGTTCAAGCGCCATCTAC”, the binding signal was 0.992 RPM ratio (pull-down/input). In the case of “GATGATTGTTCTCCCAGCTGATGAATTAACCGGGTCGAGTAAACAAATTTTCCTAATCTTTCTGTTCAAGCGCCATCTAC” it was 0.808 RPM ratio (pull-down/input); in that of “GATGATTGTTCTCCCAGCTGATGAATTTTGGCTTTCGAGTAAACAAATTTTCCTAATCTTTCTGTTCAAGCGCCATCTAC”, 1 RPM ratio (pull-down/input); in that of “GATGATTGTTCTCCCAGCTGATGAATTGGTGCCGTCGAGTAAACAAATTTTCCTAATCTTTCTGTTCAAGCGCCATCTAC”, 0.905 RPM ratio (pull-down/input).
